Results on 115 sequences are retold here after the BET-seq Pho4 binding data (Le et al. 2018).

The list shows a part of the results. These are noisy estimates, calculated here from bound and input reads.

This assay addresses T1, Pho4 (S. cerevisiae) (UniProt P07270).
T1 sequence: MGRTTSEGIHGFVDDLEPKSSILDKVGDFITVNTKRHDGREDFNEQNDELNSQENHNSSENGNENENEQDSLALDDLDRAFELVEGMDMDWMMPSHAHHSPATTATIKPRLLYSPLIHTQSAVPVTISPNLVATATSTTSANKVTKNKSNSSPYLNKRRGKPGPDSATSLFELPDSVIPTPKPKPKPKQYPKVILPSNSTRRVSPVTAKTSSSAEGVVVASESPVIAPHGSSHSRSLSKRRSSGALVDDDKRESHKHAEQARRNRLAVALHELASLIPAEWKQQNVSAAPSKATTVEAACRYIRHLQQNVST
Nature of the assay: relative binding free energy (BET-seq); higher = weaker binding. The following applies: reference: library average.
Take TATATCACGTGGTTAA: the “relative binding free energy” value is 0 kcal/mol.

With TCGGACACGTGCGGGG, the “relative binding free energy” value was -0.17 kcal/mol.

With TCGGTCACGTGCAGGT, the “relative binding free energy” value was determined as 0.05 kcal/mol.

For TTGTGCACGTGGATCT, the “relative binding free energy” value was found to be 0.01 kcal/mol.

With AACGGCACGTGAAGGT, the “relative binding free energy” value is 0.23 kcal/mol.

With GTTAGCACGTGTTTAA, the “relative binding free energy” value was -0.12 kcal/mol.

As for AGAATCACGTGTAGGT, the “relative binding free energy” value is 0.15 kcal/mol.

Regarding AAGGACACGTGGGGAT, the “relative binding free energy” value was -0.08 kcal/mol.

Turning to GGGGACACGTGTAAGA, the “relative binding free energy” value was 0.19 kcal/mol.

Regarding TCCATCACGTGGGGGT, the “relative binding free energy” value turned out to be 0.13 kcal/mol.

GGTGCCACGTGGCTGT: the “relative binding free energy” value was -0.11 kcal/mol.

With GTAGTCACGTGGAGGG, the “relative binding free energy” value is 0.15 kcal/mol.

In the case of ATTGGCACGTGGTTCA, the “relative binding free energy” value is -0.1 kcal/mol.

As for ATTCTCACGTGGTGGC, the “relative binding free energy” value was 0.19 kcal/mol.

TATGTCACGTGGGTTG: the “relative binding free energy” value came out at 0.01 kcal/mol.

With TCAATCACGTGTGTGG, the “relative binding free energy” value was 0.08 kcal/mol.

Turning to TCTTGCACGTGGTGTT, the “relative binding free energy” value came to 0.01 kcal/mol.

Regarding ACGGGCACGTGGTGTG, the “relative binding free energy” value was -0.3 kcal/mol.

For the sequence TGATACACGTGGTGGT, the “relative binding free energy” value is -0.03 kcal/mol.

With GGTAGCACGTGAGCGT, the “relative binding free energy” value was 0.25 kcal/mol.

For the sequence AGTGGCACGTGGGGGG, the “relative binding free energy” value is -0.18 kcal/mol.

Regarding AATGTCACGTGTTGGG, the “relative binding free energy” value is 0.14 kcal/mol.

For the sequence ACTAGCACGTGGTATG, the “relative binding free energy” value is -0.16 kcal/mol.

Consider AGGATCACGTGAGAGT, for which the “relative binding free energy” value is 0.51 kcal/mol.

In the case of CAAGGCACGTGCGGCG, the “relative binding free energy” value is -0.02 kcal/mol.

As for AGGGTCACGTGGGCCG, the “relative binding free energy” value was -0.12 kcal/mol.

For TGGTCCACGTGTATTG, the “relative binding free energy” value was determined as 0.06 kcal/mol.

With GAAGGCACGTGAGGCT, the “relative binding free energy” value is 0.09 kcal/mol.

For GCGGGCACGTGTGTGG, the “relative binding free energy” value was -0.07 kcal/mol.

As for TTCTGCACGTGAGTAA, the “relative binding free energy” value stood at 0.3 kcal/mol.

Turning to GGGCGCACGTGCATTG, the “relative binding free energy” value came out at 0.08 kcal/mol.

For AGTTTCACGTGTAGCT, the “relative binding free energy” value worked out at 0.22 kcal/mol.

Turning to GGCGTCACGTGTAGGT, the “relative binding free energy” value came out at 0.04 kcal/mol.

As for TGTGTCACGTGCTAGA, the “relative binding free energy” value is 0.01 kcal/mol.

On to GAATGCACGTGTTAGA, for which the “relative binding free energy” value was 0.12 kcal/mol.

On to GGGTTCACGTGCTAGA, for which the “relative binding free energy” value stood at 0.39 kcal/mol.

Turning to GTTCGCACGTGGTAAT, the “relative binding free energy” value was -0.16 kcal/mol.

Regarding ATTAACACGTGATGTT, the “relative binding free energy” value was 0.19 kcal/mol.

GTGGTCACGTGTGCGA: the “relative binding free energy” value was 0.09 kcal/mol.

AGAGTCACGTGTAGAG: the “relative binding free energy” value was determined as 0.23 kcal/mol.

On to TTCGTCACGTGGTAAT, for which the “relative binding free energy” value came out at 0.1 kcal/mol.

Take TTTGTCACGTGAGTCT: the “relative binding free energy” value is 0.29 kcal/mol.

For TAGTTCACGTGATAGG, the “relative binding free energy” value was 0.43 kcal/mol.

Turning to CTGGTCACGTGGTGAT, the “relative binding free energy” value was -0.03 kcal/mol.

Regarding TCGGGCACGTGGGTAT, the “relative binding free energy” value was -0.14 kcal/mol.

For the sequence AGCGACACGTGTGGGT, the “relative binding free energy” value was determined as 0.06 kcal/mol.

For TAATTCACGTGTCATG, the “relative binding free energy” value amounted to 0.38 kcal/mol.

Take TGGCCCACGTGTTTTG: the “relative binding free energy” value was -0.06 kcal/mol.

Take CCGTACACGTGTTGGG: the “relative binding free energy” value amounted to 0.12 kcal/mol.

Take TAGTTCACGTGGATAG: the “relative binding free energy” value is 0.34 kcal/mol.

For GCTGTCACGTGTCTTT, the “relative binding free energy” value came to 0.13 kcal/mol.

On to CTGGGCACGTGGGTCT, for which the “relative binding free energy” value is -0.21 kcal/mol.

For CGAGGCACGTGGGTAG, the “relative binding free energy” value was -0.19 kcal/mol.

On to TATCTCACGTGAGTGG, for which the “relative binding free energy” value was 0.27 kcal/mol.

In the case of TTCGGCACGTGGGGAC, the “relative binding free energy” value is -0.24 kcal/mol.

Consider GTGAACACGTGGCGGC, for which the “relative binding free energy” value was determined as 0.06 kcal/mol.

Consider TGCTTCACGTGTCGTG, for which the “relative binding free energy” value amounted to 0.29 kcal/mol.

As to TAAGCCACGTGGTAGG, the “relative binding free energy” value was -0.04 kcal/mol.

GGTGTCACGTGATGTT: the “relative binding free energy” value turned out to be 0.24 kcal/mol.

Take TACTGCACGTGGCTGG: the “relative binding free energy” value was determined as 0.01 kcal/mol.

In the case of TGGGACACGTGCATGG, the “relative binding free energy” value came out at 0.08 kcal/mol.

For AGCGTCACGTGCGTGT, the “relative binding free energy” value is -0.07 kcal/mol.

Regarding TGATGCACGTGGAGTC, the “relative binding free energy” value was found to be 0.08 kcal/mol.

As for GGATGCACGTGGGCCT, the “relative binding free energy” value is -0.1 kcal/mol.

As for AGGTACACGTGGTCGT, the “relative binding free energy” value is -0.09 kcal/mol.

On to GTGTCCACGTGCGGCG, for which the “relative binding free energy” value is 0.12 kcal/mol.

On to GCGTTCACGTGTGTGT, for which the “relative binding free energy” value was 0.29 kcal/mol.

With CATGGCACGTGAGGTA, the “relative binding free energy” value was 0.09 kcal/mol.

Turning to GGGTACACGTGGGTCT, the “relative binding free energy” value is -0.06 kcal/mol.

For the sequence AGCCTCACGTGGGGTG, the “relative binding free energy” value was -0.1 kcal/mol.

For GTTGACACGTGAGCAG, the “relative binding free energy” value was found to be 0.21 kcal/mol.

With TGGTACACGTGCATAG, the “relative binding free energy” value was found to be 0.16 kcal/mol.

With CATTGCACGTGGGTAT, the “relative binding free energy” value was -0.16 kcal/mol.

For the sequence TGACACACGTGTTAGT, the “relative binding free energy” value came out at 0.02 kcal/mol.

On to ATTTGCACGTGGAGCG, for which the “relative binding free energy” value is -0.12 kcal/mol.

Take TGCGCCACGTGGGTTT: the “relative binding free energy” value was -0.25 kcal/mol.

In the case of GTCGGCACGTGTTGTC, the “relative binding free energy” value was 0.08 kcal/mol.

On to TTCTGCACGTGATATT, for which the “relative binding free energy” value came to 0.05 kcal/mol.

Take GCTGTCACGTGATTTT: the “relative binding free energy” value amounted to 0.16 kcal/mol.

TTGGCCACGTGATCGG: the “relative binding free energy” value was -0.03 kcal/mol.

GTGCGCACGTGGGCAG: the “relative binding free energy” value was -0.39 kcal/mol.

Turning to TGGGGCACGTGGACTT, the “relative binding free energy” value is -0.08 kcal/mol.

Regarding TATTGCACGTGTTTAC, the “relative binding free energy” value is -0.01 kcal/mol.

Regarding TGGGTCACGTGATCTA, the “relative binding free energy” value is 0.25 kcal/mol.

Regarding TATTTCACGTGGTTTC, the “relative binding free energy” value was 0.21 kcal/mol.

On to GGTGGCACGTGAGTAC, for which the “relative binding free energy” value stood at 0.11 kcal/mol.

In the case of TTTAGCACGTGTACTT, the “relative binding free energy” value was -0.01 kcal/mol.

Regarding ACGTTCACGTGTTAAG, the “relative binding free energy” value is 0.24 kcal/mol.

GAAATCACGTGTTAGG: the “relative binding free energy” value turned out to be 0.23 kcal/mol.

As for GTGCTCACGTGATTGG, the “relative binding free energy” value amounted to 0.28 kcal/mol.

Take TCGAGCACGTGTTTGT: the “relative binding free energy” value was -0.08 kcal/mol.

In the case of AATGCCACGTGGGTTT, the “relative binding free energy” value was -0.08 kcal/mol.

For TGAGGCACGTGGAGCG, the “relative binding free energy” value was -0.15 kcal/mol.

With ACAATCACGTGGGGGG, the “relative binding free energy” value was 0.03 kcal/mol.

Consider TTCCTCACGTGGTGTG, for which the “relative binding free energy” value was determined as 0.02 kcal/mol.

As to GATTTCACGTGGAGGT, the “relative binding free energy” value amounted to 0.34 kcal/mol.

As to CGTGGCACGTGGATAA, the “relative binding free energy” value is -0.14 kcal/mol.

Take AATGACACGTGTTCGT: the “relative binding free energy” value is -0.05 kcal/mol.

Consider TGTGGCACGTGTGCGC, for which the “relative binding free energy” value is -0.17 kcal/mol.

Turning to ATGGCCACGTGCGGTT, the “relative binding free energy” value was -0.1 kcal/mol.

CTGTTCACGTGTGGTA: the “relative binding free energy” value was determined as 0.32 kcal/mol.

With AGCGACACGTGTTGTT, the “relative binding free energy” value is -0.03 kcal/mol.

For the sequence ATTGACACGTGAGTTG, the “relative binding free energy” value was determined as 0.32 kcal/mol.

On to AACTTCACGTGGGGGA, for which the “relative binding free energy” value turned out to be 0.04 kcal/mol.

With TGTTGCACGTGGGAGG, the “relative binding free energy” value is -0.11 kcal/mol.

With AATTACACGTGGGCTG, the “relative binding free energy” value amounted to 0 kcal/mol.

As for TGGGACACGTGTTAAA, the “relative binding free energy” value was determined as 0.1 kcal/mol.

AGGGACACGTGATGGT: the “relative binding free energy” value worked out at 0.15 kcal/mol.

With TCTCGCACGTGGAGGT, the “relative binding free energy” value worked out at 0.04 kcal/mol.

Consider TAAGGCACGTGGGATT, for which the “relative binding free energy” value came to 0 kcal/mol.

In the case of CGTAGCACGTGAGCGT, the “relative binding free energy” value worked out at 0.18 kcal/mol.

Consider TTTGGCACGTGAGGTA, for which the “relative binding free energy” value is 0.04 kcal/mol.

Turning to AAGTGCACGTGAGAGA, the “relative binding free energy” value came to 0.35 kcal/mol.

Regarding GTATCCACGTGGGTGT, the “relative binding free energy” value is -0.07 kcal/mol.

Take TCACGCACGTGGGGAG: the “relative binding free energy” value is -0.1 kcal/mol.
